The supplement of paper PMC9446081
The whole screen tested about 39,000 compounds, of which about 220 (0.56%) showed activity. This is one part of the list.

Tested on: Escherichia coli K-12 BW25113
Assay: relative growth (OD600 normalised to plate interquartile mean) (fraction); higher = less growth inhibition, active = 0.2 or less
Details: 50 µM; LB; incubation time: overnight (16-24 h)
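Further: static incubation at 37 °C against the wild-type strain, values averaged over two biological replicates.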

| Structure (SMILES) | relative growth |
| --- | --- |
| Cc1ccc(S(=O)(=O)N(C)C[C@@H]2OCCCC[C@@H](C)Oc3ccc(NC(=O)C4CCCCC4)cc3C(=O)N([C@@H](C)CO)C[C@H]2C)cc1 | inactive: 1.01 |
| COc1ccc(S(=O)(=O)Nc2ccc3c(c2)C(=O)N([C@H](C)CO)C[C@H](C)[C@H](CN(C)C(=O)Nc2ccc(F)cc2)OCCCC[C@H](C)O3)cc1 | inactive: 0.985 |
| COc1ccc(S(=O)(=O)Nc2cccc3c2O[C@H](CN(C)S(=O)(=O)c2ccc(C)cc2)[C@H](C)CN([C@H](C)CO)C3=O)cc1 | inactive: 1.01 |
| C[C@H]1CN([C@@H](C)CO)S(=O)(=O)c2ccc(C#Cc3ccncc3)cc2O[C@@H]1CN(C)C(=O)c1ccncc1 | inactive: 0.999 |
| C[C@@H]1CN([C@@H](C)CO)C(=O)Cc2cc(NC(=O)Nc3ccc4c(c3)OCO4)ccc2O[C@H]1CN(C)Cc1ccc(C(=O)Nc2ccccc2N)cc1 | inactive: 0.97 |
| C[C@@H]1CN([C@@H](C)CO)C(=O)c2c(c3ccccc3n2C)-c2ccccc2CO[C@H]1CN(C)S(=O)(=O)c1ccc(C(F)(F)F)cc1 | inactive: 1.03 |
| C[C@H](CO)N1C[C@H](C)[C@@H](CN(C)S(=O)(=O)c2ccccc2)Oc2ccc(NC(=O)CCN3CCOCC3)cc2CC1=O | inactive: 1.02 |
| CO[C@H]1C[C@@H]2CC[C@@H](C)[C@@](O)(O2)C(=O)C(=O)N2CCCC[C@H]2C(=O)O[C@H]([C@H](C)C[C@@H]2CC[C@@H](O)[C@H](OC)C2)CC(=O)[C@H](C)/C=C(\C)[C@@H](O)[C@@H](OC)C(=O)[C@H](C)C[C@H](C)/C=C/C=C/C=C/1C | inactive: 0.989 |
| Cc1c(C(N)=O)cc([N+](=O)[O-])cc1[N+](=O)[O-] | inactive: 1.01 |
| COc1ccc(S(=O)(=O)Nc2ccc3c(c2)C(=O)N([C@@H](C)CO)C[C@H](C)[C@@H](CN(C)Cc2ccc(-c4ccccc4)cc2)O3)cc1 | inactive: 1 |
| O=C1CSCC(=O)N1c1cccnc1 | inactive: 0.989 |
| COCCNC(=O)C[C@H]1CC[C@@H](NS(=O)(=O)c2ccc(C)cc2)[C@H](CO)O1 | inactive: 1.07 |
| Cc1ccc(S(=O)(=O)Nc2ccc3c(c2)C(=O)N([C@@H](C)CO)C[C@@H](C)[C@H](CN(C)Cc2ccc(C(F)(F)F)cc2)O3)cc1 | inactive: 1.03 |
| COc1ccc(C#Cc2ccc3c(c2)O[C@@H](CN(C)C(=O)c2ccccn2)[C@@H](C)CN([C@H](C)CO)S3(=O)=O)cc1 | inactive: 1.03 |
| C[C@@H]1CN([C@@H](C)CO)S(=O)(=O)c2ccc(-c3ccncc3)cc2O[C@@H]1CN(C)C(=O)c1cccc(F)c1 | inactive: 0.988 |
| COc1ccc(CN(C)C[C@@H]2Oc3ccc(NS(=O)(=O)c4c(C)noc4C)cc3C(=O)N([C@@H](C)CO)C[C@@H]2C)cc1 | inactive: 0.988 |
| C[C@H](CO)N1C[C@H](C)[C@H](CN(C)C(=O)Nc2cccc3ccccc23)Oc2ccc(NC(=O)Nc3cccc4ccccc34)cc2C1=O | inactive: 1.02 |
| Cc1cccc(/C=N/Nc2cc(N3CCOCC3)n3nc(-c4ccncc4)cc3n2)c1 | inactive: 1.03 |
| CC(C)NC(=O)N(C)C[C@@H]1Oc2cc(-c3ccccc3F)ccc2S(=O)(=O)N([C@H](C)CO)C[C@H]1C | inactive: 1.01 |
| C[C@H]1CCCCO[C@@H](CN(C)S(=O)(=O)c2cccs2)[C@@H](C)CN([C@@H](C)CO)C(=O)c2cc(NC(=O)NC3CCCCC3)ccc2O1 | inactive: 1.01 |

| Structure (SMILES) | relative growth |
| --- | --- |
| Cc1ccc(S(=O)(=O)n2cc([C@@H]3CC(=O)N(C(=O)OCc4ccccc4)[C@@H]3C(=O)Nc3cccc4cccnc34)c3ccccc32)cc1 | inactive: 1.02 |
| C[C@@H]1CCCCO[C@H](CN(C)C(=O)C2CCCCC2)[C@@H](C)CN([C@@H](C)CO)C(=O)c2cc(NC(=O)c3ccncc3)ccc2O1 | inactive: 1 |
| COc1ccc(CN(C)C[C@H]2OCCCC[C@@H](C)Oc3ccc(NC(=O)c4ccccc4)cc3C(=O)N([C@@H](C)CO)C[C@@H]2C)cc1 | inactive: 1.03 |
| CCS(=O)(=O)N(C)C[C@@H]1OCc2ccccc2-c2c(n(C)c3ccccc23)C(=O)N([C@H](C)CO)C[C@@H]1C | inactive: 1.02 |
| CO[C@@H]1CN(C)C(=O)c2cc(NS(C)(=O)=O)ccc2OC[C@H](C)N(C(=O)C2CCOCC2)C[C@@H]1C | inactive: 1.01 |
| C[C@H]1COC(=O)[C@H](Cc2ccc(F)cc2)CC=CC[C@@H](CC(=O)N[C@@H](CO)Cc2ccccc2)C(=O)N1 | inactive: 0.988 |
| COc1ccc(-c2cnc3c(c2)C(=O)N([C@@H](C)CO)C[C@H](C)[C@@H](CN(C)C(=O)Cc2ccccn2)O3)cc1 | inactive: 1 |
| COc1ccc(C(=O)N[C@@H](C)c2nnc(SCc3cccc(C(F)(F)F)c3)n2-c2cccc(Cl)c2)cc1 | inactive: 1.04 |
| O=C(Cc1ccncc1)NCC[C@H]1CC[C@H](NC(=O)C2CCOCC2)[C@H](CO)O1 | inactive: 0.984 |
| C[C@H]1CN([C@@H](C)CO)C(=O)c2cc(/C=C/c3ccccc3)cnc2O[C@H]1CN(C)S(=O)(=O)c1cn(C)cn1 | inactive: 1.02 |
| C[C@H](CO)N1C[C@H](C)[C@H](CN(C)S(=O)(=O)c2cn(C)cn2)OCCCC[C@H](C)Oc2ccc(N(C)C)cc2C1=O | inactive: 0.985 |
| CS(=O)(=O)N1C[C@@H](O)COC[C@H]2O[C@H](CC(=O)NCc3ccccc3)CC[C@@H]21 | inactive: 1.01 |
| NC1CCN(c2cccc(Cl)n2)CC1 | inactive: 0.978 |
| CCCCCCCCCCNc1cc(CO)c2cc[nH]c2c1 | inactive: 1 |
| C[C@@H]1CN([C@@H](C)CO)C(=O)c2cc(C#CCN(C)C)cnc2O[C@@H]1CN(C)C(=O)CN1CCOCC1 | inactive: 1.02 |
| C[C@H](CO)N1C[C@H](C)[C@@H](CN(C)S(C)(=O)=O)Oc2ncc(C#CCN(C)C)cc2C1=O | inactive: 0.978 |
| COCC#Cc1cnc2c(c1)C(=O)N([C@H](C)CO)C[C@H](C)[C@@H](CN(C)C(=O)Nc1ccccc1OC)O2 | inactive: 0.986 |
| C[C@@H]1CN([C@@H](C)CO)C(=O)c2cccc(NS(C)(=O)=O)c2O[C@@H]1CN(C)S(=O)(=O)c1cccs1 | inactive: 1 |
| C[C@@H]1CCCCO[C@H](CN(C)S(=O)(=O)c2cccs2)[C@@H](C)CN([C@H](C)CO)C(=O)c2cc(NC(=O)Nc3ccc(C(F)(F)F)cc3)ccc2O1 | inactive: 1.01 |
| C[C@@H]1CN([C@@H](C)CO)C(=O)Cc2cc(NC(=O)Cn3cnnn3)ccc2O[C@@H]1CN(C)Cc1ccc(-c2ccccc2)cc1 | inactive: 1.02 |

| Structure (SMILES) | relative growth |
| --- | --- |
| COc1ccc2c3c([nH]c2c1)[C@H](CO)N(C[C@]13CCN(CC1)C(=O)Nc1cccc(c1)F)C(=O)c1ccc(cc1)F | inactive: 1.02 |
| O=C(C1=C[C@@H](c2ccc(Br)cc2)C[C@@H](OCc2ccc(CO)cc2)O1)N1CCCCCCC1 | inactive: 1.09 |
| C[C@H](CO)N1C[C@H](C)[C@@H](CN(C)S(=O)(=O)c2cn(C)cn2)Oc2ccc(NS(=O)(=O)c3ccccc3)cc2C1=O | inactive: 0.981 |
| CCS(=O)(=O)N(C)C[C@H]1OCc2ccccc2-c2c(n(C)c3ccccc23)C(=O)N([C@H](C)CO)C[C@H]1C | inactive: 1.05 |
| Cc1ccc(S(=O)(=O)Nc2ccc3c(c2)CC(=O)N([C@@H](C)CO)C[C@H](C)[C@H](CN(C)C(=O)Nc2cccc4ccccc24)O3)cc1 | inactive: 1.02 |
| Cc1ccc(S(=O)(=O)Nc2ccc3c(c2)C(=O)N([C@H](C)CO)C[C@H](C)[C@H](CN(C)C(=O)Cc2ccccc2)OCCCC[C@H](C)O3)cc1 | inactive: 1.01 |
| C[C@@H]1CN([C@H](C)CO)C(=O)c2cccc(NC(=O)c3cnccn3)c2O[C@H]1CN(C)Cc1ccc(C(=O)O)cc1 | inactive: 1.01 |
| C[C@@H]1CN([C@@H](C)CO)C(=O)Cc2cc(NC(=O)Cc3cn(C)c4ccccc34)ccc2O[C@H]1CN(C)C(=O)Nc1cccc2ccccc12 | inactive: 1.01 |
| Nc1nc(=O)c2[nH]c(=O)c(=O)[nH]c2[nH]1 | inactive: 0.996 |
| NC(=O)[C@@H]1[C@H]2C(=O)O[C@H](c3ccccc3)[C@H](c3ccccc3)N2[C@H](c2ccc(OCCO)cc2)[C@@]12C(=O)Nc1ccc(C#CC3=CCCCC3)cc12 | inactive: 1.02 |
| C[C@H](CO)N1C[C@H](C)[C@@H](CN(C)Cc2ccc(O)cc2)OCc2ccccc2-c2c(n(C)c3ccccc23)C1=O | inactive: 1 |
| O=C1O[C@H](c2ccccc2)[C@H](c2ccccc2)N2[C@H]1[C@@H](C(=O)N1CCCCCCC1)[C@]1(C(=O)Nc3ccc(C#CCCO)cc31)[C@H]2c1ccc(O)cc1 | inactive: 1.04 |
| C[C@@H]1CN([C@H](C)CO)C(=O)c2cc(NC(=O)CCN3CCOCC3)ccc2O[C@H]1CN(C)CC1CCCCC1 | inactive: 1.02 |
| Cc1noc(C)c1S(=O)(=O)Nc1ccc2c(c1)CC(=O)N([C@H](C)CO)C[C@H](C)[C@H](CN(C)Cc1ccc3c(c1)OCO3)O2 | inactive: 1 |
| C[C@H](CO)N1C[C@H](C)[C@H](CN(C)C(=O)Nc2ccccc2)Oc2c(NC(=O)C3CCOCC3)cccc2C1=O | inactive: 0.982 |
| C[C@H]1CN([C@@H](C)CO)C(=O)c2cccc(NC(=O)Nc3cccc4ccccc34)c2O[C@H]1CN(C)Cc1ccncc1 | inactive: 1.01 |
| C[C@@H]1CN([C@H](C)CO)C(=O)c2cc(NS(=O)(=O)c3ccc(Cl)cc3)ccc2O[C@H]1CN(C)S(=O)(=O)c1cn(C)cn1 | inactive: 0.994 |
| C[C@H]1CN([C@@H](C)CO)C(=O)Cc2cc(NS(=O)(=O)c3cn(C)cn3)ccc2O[C@@H]1CN(C)Cc1ccc2c(c1)OCO2 | inactive: 1.03 |
